Assay results: article PMC4336329 (PLoS ONE, 2015)
The whole screen tested about 310,000 compounds, of which about 2,200 (0.71%) showed an effect of 50% or more. The effect is printed as a negative number. The list shows a part of the results.

Molecular target: human ether-à-go-go-related gene (hERG) potassium channel (human, UniProt Q12809)
Experiment: primary screen, population patch clamp on CHO cells stably expressing hERG

Chain of human ether-à-go-go-related gene (hERG) potassium channel (Q12809 whole entry, looked up): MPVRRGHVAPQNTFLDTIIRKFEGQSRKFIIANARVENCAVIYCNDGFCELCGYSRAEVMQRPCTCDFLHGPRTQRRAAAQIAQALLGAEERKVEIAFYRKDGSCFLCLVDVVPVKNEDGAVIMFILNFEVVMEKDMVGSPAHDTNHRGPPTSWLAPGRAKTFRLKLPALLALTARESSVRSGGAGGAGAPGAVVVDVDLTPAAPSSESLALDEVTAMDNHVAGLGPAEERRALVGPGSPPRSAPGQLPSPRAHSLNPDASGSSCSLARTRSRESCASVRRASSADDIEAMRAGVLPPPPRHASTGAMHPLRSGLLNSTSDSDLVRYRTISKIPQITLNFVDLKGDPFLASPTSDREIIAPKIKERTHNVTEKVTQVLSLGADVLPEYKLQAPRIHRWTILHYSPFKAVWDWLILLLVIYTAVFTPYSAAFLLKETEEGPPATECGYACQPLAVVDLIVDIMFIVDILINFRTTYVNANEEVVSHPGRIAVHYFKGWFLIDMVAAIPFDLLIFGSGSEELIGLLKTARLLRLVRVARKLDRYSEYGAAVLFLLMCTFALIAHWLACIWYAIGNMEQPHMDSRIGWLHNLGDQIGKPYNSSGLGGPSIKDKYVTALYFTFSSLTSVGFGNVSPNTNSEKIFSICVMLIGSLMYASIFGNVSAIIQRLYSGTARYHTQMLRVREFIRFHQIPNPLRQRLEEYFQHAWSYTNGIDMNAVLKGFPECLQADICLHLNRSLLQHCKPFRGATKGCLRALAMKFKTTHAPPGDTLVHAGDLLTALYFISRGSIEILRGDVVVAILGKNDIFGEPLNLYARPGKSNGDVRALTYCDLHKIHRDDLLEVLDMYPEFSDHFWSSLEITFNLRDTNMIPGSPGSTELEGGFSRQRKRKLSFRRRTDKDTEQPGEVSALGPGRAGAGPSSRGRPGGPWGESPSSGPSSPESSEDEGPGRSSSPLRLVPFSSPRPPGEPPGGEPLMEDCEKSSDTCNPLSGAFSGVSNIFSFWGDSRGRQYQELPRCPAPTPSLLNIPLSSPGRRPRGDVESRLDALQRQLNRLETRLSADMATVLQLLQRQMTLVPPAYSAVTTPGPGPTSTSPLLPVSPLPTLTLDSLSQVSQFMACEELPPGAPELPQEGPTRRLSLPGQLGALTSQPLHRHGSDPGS

Row | Structure (SMILES) | hERG current change (%, negative = inhibition) at 1uM [%]
1 | Cn1cccc1C(=O)OCC(=O)c1cc2ccccc2o1 | 11.3
2 | S=c1[nH]nc(C2CCCCC2)n1/N=C/c1ccc(Cl)cc1 | 8.99
3 | CCn1c(O)c(N=NC2=NC(=O)CS2)c2cc(C)ccc21 | 9.35
4 | CCn1ccc(C(=O)Nc2c(C)nn(Cc3c(F)c(F)c(F)c(F)c3F)c2C)n1 | 15.4
5 | CC(=O)N1CCCc2cc(S(=O)(=O)CCC(=O)Nc3cccc(C)c3C)ccc21 | 13.8
6 | Cc1sc(NC(=O)C2CSC3(C)CCC(=O)N23)nc1-c1ccccc1 (centres unmarked) | 3.27
7 | CCCc1nnc(NC(=O)c2cccs2)s1 | 21.5
8 | CCn1cc(C(=S)N2CCC(C(N)=O)CC2)c2ccccc21 | 6.71
9 | O=C(COc1ccccc1-c1ccccc1)c1ccccc1 | 4.72
10 | Oc1c(CN2CCN(c3ccccn3)CC2)cc(Cl)c2cccnc12 | 6.67
11 | O=S(=O)(c1ccc(SCc2cccc(Cl)c2)nc1)N1CCCC1 | 0.329
12 | CC(=O)Nc1ccc(S(=O)(=O)N2CCN(C(=O)C3COc4ccccc4O3)CC2)cc1 (centres unmarked) | 9.27
13 | COCCNC(=O)C(c1cccc(OC)c1)N(Cc1cccs1)C(=O)Cn1nnc2ccccc21 (centres unmarked) | 12.4
14 | CCOC(=O)CN1C(=O)CC(c2ccccc2)C1=O (centres unmarked) | 6.6
15 | COc1ccc(NS(=O)(=O)c2ccc(NC(=S)NC(=O)/C=C/c3ccc(C)cc3)cc2)nn1 | 9.4
16 | Cc1cccc(-c2nc3ccccc3c(=O)n2NC(=O)c2cccs2)c1 | 9.27
17 | COc1ccc(Cl)cc1S(=O)(=O)N1CCN(C(=O)COc2ccccc2)CC1 | 1.31
18 | CCOc1cc(C2NC(=O)NC(O)(C(F)(F)F)C2C(=O)c2ccc(OC)cc2)ccc1O (centres unmarked) | 5.27
19 | CCCCCC/C(=N\NS(C)(=O)=O)c1ccccc1 | 11.9

Row | Structure (SMILES) | hERG current change (%, negative = inhibition) at 1uM [%]
20 | O=C(c1ccc2c(=O)n(Cc3ccco3)c(=S)[nH]c2c1)N1CCN(c2ccccc2)CC1 | 13.8
21 | O=C(/C=C/c1ccc([N+](=O)[O-])cc1)Nc1cccnc1 | -31.4
22 | N#C/C(=C\c1ccccc1OCC(=O)O)c1nc2ccccc2[nH]1 | 5.93
23 | COCCCn1c(C)nnc1SCC(=O)Nc1ccc(C(C)=O)cc1 | 13
24 | COc1ccc(CN(C(=O)c2oc3ccccc3c2C)C2CCS(=O)(=O)C2)cc1OC (centres unmarked) | 1.51
25 | C=CCn1c(Cc2ccc(OC)cc2)nnc1SCC(=O)c1cccc([N+](=O)[O-])c1 | 0.577
26 | CCOc1cccc(OCCCCn2cnc3ccccc3c2=O)c1 | 11.4
27 | Cc1cc(SCC(=O)Nc2ncc(Cl)cc2Cl)nc2ccccc12 | 9.1
28 | O=C(NN=C1C2CC3CC(C2)CC1C3)c1ccncc1 | -0.112
29 | O=C(NCCN1Cc2ccccc2C1=O)c1cccs1 | 7.4
30 | O=C(NC(=S)Nc1c(F)cc(F)cc1Br)c1ccc2c(c1)OCCO2 | 19.5
31 | C=CCn1c(-c2ccc(N)cc2)nc2ccccc21 | 11.8
32 | Cc1ccccc1NNC(=O)C(=O)NNc1ccccc1C | 10.7
33 | O=c1c2ccccc2nc(Cc2cccc([N+](=O)[O-])c2)n1-c1ccc(O)cc1 | 4.44
34 | CC1CCN(c2nc(N(C)c3ccccc3)nc(N)c2[N+](=O)[O-])CC1 | 10
35 | CCCCc1ccc(NC(=O)CC(C)=O)cc1 | -13.1
36 | CCCCn1c(N)c(N(CC)C(=O)c2cc(S(=O)(=O)N3CCCCCC3)ccc2OC)c(=O)[nH]c1=O | 5.44
37 | O=C(Nc1cnc2sc3c(n2c1=O)CCCC3)c1ccc(F)cc1 | 4.4
38 | CNC(=O)Nc1ccccc1C(=O)NCc1ccccc1 | 2.19

Row | Structure (SMILES) | hERG current change (%, negative = inhibition) at 1uM [%]
39 | COc1ccc(S(=O)(=O)Nc2cc(C)nn2-c2ccccc2)cc1 | 10.1
40 | Cc1c2cn[nH]c(=O)c2c(C)n1-c1ccccc1 | 15.3
41 | COCc1c(C(=O)N/N=C(/C)c2ccc(OCc3ccccc3)cc2)nnn1-c1nonc1N | 9
42 | COc1cc(C(c2c(C)[nH][nH]c2=O)c2c(C)[nH][nH]c2=O)cc(Cl)c1O | 13.3
43 | COC(=O)C1=C(c2ccc(OC)c(OC)c2)C[C@@H]2CC[C@H]1N2C(=O)N1CCCC1 | 13.6
44 | COc1ccc(S(=O)(=O)N(C)CC(=O)Nc2ccc(F)cc2)cc1 | 9.66
45 | CC1CCN(CCOCCSc2ccc(Cl)cc2)CC1.O=C(O)C(=O)O | -19.3
46 | O=C(CNC(=O)c1ccc(Br)cc1)OCC(=O)c1ccccc1 | 6.37
47 | CCC(C)(C)NC(=O)C(c1ccc(C)cc1)N(CC1CCCO1)C(=O)c1csnn1 (centres unmarked) | 11.6
48 | CC(C)(C)C1CCc2c(C(=O)N/N=C/c3cccs3)csc2C1 (centres unmarked) | -2.06
49 | Cc1cc(/C=C2\C(=O)NC(=S)N(C)C2=O)c(C)n1C1CCCCC1 | 10.3
50 | O=C(CN1CCCc2ccccc21)Nc1ccccc1[N+](=O)[O-] | 22.7
51 | c1cncc(-c2nc(N3CCCCCC3)c3ccccc3n2)c1 | -42.8
52 | CCn1nc(C(=O)N2CCN(Cc3ccc4c(c3)OCO4)CC2)c2ccccc2c1=O | -33.2
53 | CCCN(Cc1nnc(-c2ccccc2Cl)o1)C(=O)COc1ccc(Cl)cc1 | -20.7
54 | N#CC(C#N)=Cc1ccc(-c2ccccc2)o1 | 3.25
55 | O=C1C(c2ccc(F)cc2)N(CC2COc3ccccc3O2)C(=O)CN1C1CCCCC1 (centres unmarked) | -17.8
56 | NS(=O)(=O)c1ccc(CCNC(=O)c2cccc3ccccc23)cc1 | 11.6
